Data published in the RNAGym collection of RNA variant scans (doi:10.7554/elife.90254).
Read counts are not given, so values of variants with three or more changes are uncertain.

B1: LINE1-mini (parent)
chain: GGCAGAGCUCAACACAGCGUGGCAAAGUGGCUGUGGCUAGACUGCC

Variants of: B1
Assay: self-cleavage, relative activity (ratio to wild type); higher = more cleavage; in vitro, sequencing; the parent is a self-cleaving ribozyme

Row | Variant | self-cleavage
1 | GGGAGAGCUCAACACGGCGUGGCAAAGUGGCUGUGGCUAGAUUGCC [C3G A16G C42U] | 0.05
2 | GGCAGAGCUUAACACAGCGUGGCAAGGUUGCUGUGGCUAGACUGCC [C10U A26G G29U] | 0.28
3 | GGCAGAUCUCAACACAGCGUGGCAAAGUGGCUGUGACUAGACUCCC [G7U G36A G44C] | 0.11
4 | GGCAGAUCUCAACACAGCGUGGCAAAGUGCCUGUGGCUAGACUACC [G7U G30C G44A] | 0.04
5 | GCCGGAGCUCAACACAUCGUGGCAAAGUGGGUGCGGCUAGACUGCC [G2C A4G G17U C31G U34C] | 0.03
6 | GGCAGAGCUCAAGACAGCGUGUCAGAGUGGCUGUGGCUAGACUGCC [C13G G22U A25G] | 0.04
7 | AGCAGAGCUCAACACAGCGUGGCAACGUGGCUGUGGCUAGUCUGCC [G1A A26C A41U] | 2.09
8 | GGCAGAGCUUAUCACAGCGGGGCAAAGUGGCUGUGGGUAGACUGCC [C10U A12U U20G C37G] | 0
9 | GGCACAGCUCAAAACAGGGUGGCAAAGUGGCUGUGGAUAGACUGCC [G5C C13A C18G C37A] | 0.01
10 | GGCAGAGCUGUCCACAGCGUGGCAAAGUGGCUGUGGCUAGACUGCA [C10G A11U A12C C46A] | 0.01
11 | GGCAGUGCUCAACACAGCGUGUCAAAGUGGCUGUGGACAGACUGCC [A6U G22U C37A U38C] | 0.05
12 | GGCAGAGCUCCACUCAGCGUGGCAAAGUUGCUGUGGCUAGACUGCC [A11C A14U G29U] | 0
13 | CGCAGAGCUCAACACAGCGUGGCAAAGUGGCUGUGGCUAGACUGUA [G1C C45U C46A] | 0.08
14 | GCCAGAGCUCAACGCAGCGUGGACAACUGGCUGUGGAUAAACUGCC [G2C A14G C23A A24C G27C C37A G40A] | 0
15 | GGCAGAGCUCAACACAGCUUUGCACCGUGCCUGUGGCUAGAGUGCC [G19U G21U A25C A26C G30C C42G] | 0.03
16 | GGCAGAGGCCAACACAGCGUUGCCAAGUGGCUGUGGCUUGACUGCC [C8G U9C G21U A24C A39U] | 0.01
17 | GGCAGAUCUCAACUCAGCGUGGCAAAGUGGCUGUGGCUCGACUGCC [G7U A14U A39C] | 0.52
18 | GUCACAGCUCAAAACAGCGUGGCAUAGUGGCUGUGGCUAGACUGCC [G2U G5C C13A A25U] | 0.04
19 | GGCAGAACUCAACACAGCGUGGCAAAGUGGCUAUGGCUAGACUACC [G7A G33A G44A] | 0.23

Row | Variant | self-cleavage
20 | GGCAGAGCUCAACACAGCAUGGCAAAGUGGCUCUCGCGAGACUCAC [G19A G33C G35C U38G G44C C45A] | 0.01
21 | GGCAGAGCUCAACACAGCGUGGAAAAGUGGAUGUAGCUAGACUGCC [C23A C31A G35A] | 0.05
22 | GCCAGAGCUCAACACAGCGUGGCAAAGUGGUUGUGUCUAGACUGCC [G2C C31U G36U] | 0.07
23 | GGCAGCGCUCAAUACAGCGUGGCAAAGUGGCUGUGACUAGACUGCC [A6C C13U G36A] | 0.09
24 | GGCAGAGCUCAACACAGCCUGGCAAAGCGGCUGUGGCUAGAAUGCC [G19C U28C C42A] | 0.06
25 | AGCAGAGCUCAACACAACCUGGCAAGGUGGCUGUGGCUAGACUGCC [G1A G17A G19C A26G] | 0.07
26 | GGCCGAGCUCAACACAGCGUGGCAAAGUGGCUGCGGCUAGACUCGC [A4C U34C G44C C45G] | 0.01
27 | GGCAGAGCUCAACGCAGGGUGGCAAAGGGGCUGUGGCUAGACUGCC [A14G C18G U28G] | 0.05
28 | GACAGAGCUGAACACAGCGUGGGACAGUGGCUGUGGCUAGACUGCC [G2A C10G C23G A25C] | 0.03
29 | GGCAGAGCACAACACUGCGUGGCAAAGUGGCUGUGGCUAGCCUGCC [U9A A16U A41C] | 0.04
30 | GGCAGAGCUCAACAUAGCGUGGCAAUGUGGCUGUGGCUAGACUGCU [C15U A26U C46U] | 1.14
31 | GGCAGAGCGCAACAUAGCGUGGCAAUGUGGCUGUGGCUAGACUGCC [U9G C15U A26U] | 0.16
32 | GGCUGAGCUCAACACAGCCUGGCAAUGUGGCUGUGGCUAGACUGCC [A4U G19C A26U] | 0.07
33 | GGCAGAGCUCAACACAGCGUGGCGAAGUGUCUGUGGCUAGACUGCU [A24G G30U C46U] | 0.56
34 | GGCAGAUCUCAACACAGCGUGGCAAAGUGGGUGUGGCGAGACUGCU [G7U C31G U38G C46U] | 0.01
35 | GGCAGAGCUCAACACAGCGUGUCAAAGUGGCUGUGGCUAGACUCGC [G22U G44C C45G] | 0.09
36 | GGCAGAGCUCUACACAGCGUGGCAAAGUGGCACUGGAUAGACUGCU [A11U U32A G33C C37A C46U] | 0
37 | GGCAAAUCUCAACACAGCGUGGCCAAGUGGCUGUAGCUAGACUGCC [G5A G7U A24C G35A] | 0.07
38 | GGCAGAGCUCAACACAGCGUGGCAAAGUAGCUGUGGCUAGUGUGUC [G29A A41U C42G C45U] | 0.25

Row | Variant | self-cleavage
39 | GGCAGAGCUCAAGACAGCGUGGCAAAGUGGCUGGGGCCAGACUGCC [C13G U34G U38C] | 0.02
40 | GGCAGAGCUCAACACAGUGUGGCAAACUGGCUGCGGCUUGAGUGCC [C18U G27C U34C A39U C42G] | 0.02
41 | GGCAGAGCUCAACCCAGCGUGGCACAGAGAAUGUGUGUAGACUGCC [A14C A25C U28A G30A C31A G36U C37G] | 0.1
42 | GGCAGAGCGGAACACAGCGUGGCAAAGCGGCUGUGGCUAGACUGCC [U9G C10G U28C] | 0.04
43 | CGCAGAGAUCAACACAGCAUGGCCAAGUGGCUGUGGCUAGACUGCC [G1C C8A G19A A24C] | 0.03
44 | GGCAGAGCUAAACACAGCGUGGCAUAUUGGCGGUGGCUAGACUGCC [C10A A25U G27U U32G] | 0.03
45 | GGCAGAGCUAAGCUCAGCGUGGCAAAGUGGCUGUGGAUAGACUGCC [C10A A12G A14U C37A] | 0.04
46 | GGCAGAGCUCUACACAGCGUGGCAAAGUGUCUGUGGCUACACUGCC [A11U G30U G40C] | 0.02
47 | GGCAGUACUCAACACAGCGUGGCAGAGUGACUGUGACUAGACAGCC [A6U G7A A25G G30A G36A U43A] | 0.02
48 | GGAAGAGCUCAACACAUAGUGGCAAAGUGGCUGUGGCUAGACUGCC [C3A G17U C18A] | 0.03
49 | GGCCGAGCUUAACACAGCGUGGCAAACUGGCUGUGGCUAGACUGCC [A4C C10U G27C] | 0.09
50 | GUCAGAGCUCAACACAGCGUUGCAAAGUGGCUUUGGCUAGACUGCC [G2U G21U G33U] | 0.01
51 | GGCAGAGCUCAACACAGCGUGGCAAAGUAGCCGUCGCUAGACUGCC [G29A U32C G35C] | 0.04
52 | GGCAGAGCUCAACACAGCGUCGCAAAGUGGCUGUGGCUACACUGAC [G21C G40C C45A] | 0.11
53 | GGCAGUGCUCAACACAGGGUGGCAACGUGGCUGUGGCUAGACUGCC [A6U C18G A26C] | 0.14
54 | GGCAGCGCUCAACACUGCGUGGCAAAGUGGCUGUGCCUAGACUGCC [A6C A16U G36C] | 0.03
55 | GGCAGUGCUCAACACAGCGUGGCAAAGUGGAUAUGGCUAGACUGCC [A6U C31A G33A] | 0.03
56 | GGCAGAGCUCAACAGAGCAUGGCAAAGUGGCUGUGACUAUACUGCC [C15G G19A G36A G40U] | 0.04
